Reference: PubChem BioAssay AID686978 (National Center for Advancing Translational Sciences (NCATS), 2013)
Out of some 420,000 compounds screened, about 64,000 (15%) were called active. Inconclusive means that the source gave no clear call. Such entries were picked first, then a sample of the others. Calls come from the whole dose curve; as a rule, active = well fitted inhibition curve with a large enough effect; inconclusive = small, poorly fitted or top-dose-only effect; inactive = flat fitted curve, though single readings scatter. No potency is given beside an inconclusive call; the fits are too rough.

Test: qHTS for Inhibitors of human tyrosyl-DNA phosphodiesterase 1 (TDP1): qHTS in cells in absence of CPT; note: nearly all actives have a fitted effect of over 55% in size
Details: DT40 Tdp1-/- hTDP1 cells, no CPT, ATP luminescence, 48 h; activity change, negative = growth inhibition: at 46.2 µM (top of the series)
How it was run: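 Chicken DT40 Tdp1-/- cells stably complemented with human TDP1 were seeded at 400 cells/well with DMSO in place of 20 nM camptothecin. After compound pinning, cells grew at least 48 hr at 37 °C; viability read by CellTiter-Glo luminescence.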
% is set by controls: 0 for no effect and ±100 for the full control effect; potency is the fitted concentration of half-maximal effect; tags give direction and shape of the fitted curve.

Question: With `CCCCCCCCN1C(=O)[C@H](CC(=O)NCc2cccs2)C[C@@]2(C(=O)OC)CC(C)(C)CC=C12` as the compound, how does the Potency read?
Answer: active: 8.2 µM

Question: With `CCOC(=O)C1(C)CCCN1C(=O)c1cncc(Br)c1` (stereo not given) as the compound, how does the “activity change, negative = growth inhibition” value read?
Answer: inactive: -7.21%

Question: For `CN(C)c1ccc(C(CNS(=O)(=O)c2ccc(F)c(F)c2)c2c[nH]c3ccccc23)cc1` (stereo not given), which Potency is on record?
Answer: inconclusive [inhibitor, single point]

Question: Which Potency does the source give for `CN1CCN(C(=O)CCN2C(=O)/C(=C/c3ccccc3Cl)SC2=S)CC1` here?
Answer: active: 11.6 µM

Question: For `O=C1N/C(=N/S(=O)(=O)c2ccccc2)S/C1=C/c1cccnc1`, which Potency is on record?
Answer: inconclusive [inhibitor, single point]

Question: With `CS(=O)(=O)NCCOc1ccc(S(=O)(=O)N2CCCc3ccccc32)cc1` as the compound, how does the Potency read?
Answer: inconclusive [inhibitor, single point]

Question: With `Cc1cc(Nc2ccccc2)n(-c2nc3ccccc3[nH]2)n1` as the compound, how does the Potency read?
Answer: inconclusive [inhibitor, single point]

Question: Which activity change, negative = growth inhibition does the source give for `CS(=O)(=O)NCc1nnc(SCC(=O)NC2CCCCC2)n1-c1ccc(F)cc1` here?
Answer: inconclusive: -32.3% [inhibitor]

Question: With `C[C@@H](NC(=O)c1nc[nH]c1C(=O)N1CCc2ccccc2C1)c1ccccc1` as the compound, how does the Potency read?
Answer: inconclusive [inhibitor, single point]

Question: With `CC(C)CN1CCN(Cc2nc(C(C)C)cs2)CC1CCO` (stereo not given) as the compound, how does the “activity change, negative = growth inhibition” value read?
Answer: inactive: -3.11%

Question: Which Potency does the source give for `CCc1ccc(NC(=O)CC2C(=O)N(c3ccc(OC)cc3)C(=O)N2Cc2ccc(OC)cc2)cc1` (stereo not given) here?
Answer: inconclusive [inhibitor, partial curve]

Question: Which Potency does the source give for `Cc1c(C(=O)NCCc2ccccc2)cccc1-n1cnc2cccnc21` here?
Answer: inconclusive [inhibitor, single point]

Question: With `CCOC(=O)C1=CC[C@@H](c2cc3cc(OC)ccc3n2C)N(S(=O)(=O)c2ccc(C)cc2)[C@H]1C(=O)OCC` as the compound, how does the Potency read?
Answer: inconclusive [inhibitor, partial curve]

Question: With `N#CC1=C(N)NC(SCC(=O)Nc2ccccc2)=C(C#N)C12CCCCC2` as the compound, how does the Potency read?
Answer: active: 23.1 µM

Question: With `Cc1ccsc1/C=N/NC(=O)C1CC(=O)N(c2ccccc2)C1` (stereo not given) as the compound, how does the Potency read?
Answer: inconclusive [inhibitor, single point]

Question: Which Potency does the source give for `O=C(c1cnccn1)N1CCC2(CCCN(c3ccc(-c4ccccc4)cc3)C2)CC1` here?
Answer: inconclusive [inhibitor, single point]

Question: With `C=C(c1ccc(C(=O)O)cc1)c1cc2c(cc1C)C(C)(C)CCC2(C)C` as the compound, how does the Potency read?
Answer: inconclusive [inhibitor, partial curve]

Question: Which “activity change, negative = growth inhibition” value does the source give for `CCn1c(-c2cc(OC)c(OC)c(OC)c2)n[nH]c1=S` here?
Answer: inactive: 18.3%

Question: With `COC(=O)c1cc(NS(=O)(=O)c2ccc(NC(C)=O)cc2)ccc1Cl` as the compound, how does the Potency read?
Answer: inconclusive [inhibitor, partial curve]

Question: For `C/C(=N\Nc1nc(N)cc(Cl)n1)c1cccc(N)c1`, which Potency is on record?
Answer: inconclusive [inhibitor, single point]

Question: Which Potency does the source give for `CCCc1nc2c(C)cc(Br)cn2c1Cc1ccccc1` here?
Answer: inconclusive [inhibitor, single point]

Question: Which “activity change, negative = growth inhibition” value does the source give for `CSc1ccc(/C=N/Nc2cccc(C(=O)O)c2)cc1` here?
Answer: inactive: -25.7%

Question: For `CC(C)CC1Nc2ncnc(N3CCN(c4ccccc4)CC3)c2N(Cc2ccccc2)C1=O` (stereo not given), which Potency is on record?
Answer: active: 14.6 µM

Question: Which “activity change, negative = growth inhibition” value does the source give for `Cc1cc(=O)n(Cc2ccc(F)cc2Cl)c2c1c(C)nn2-c1ccccc1` here?
Answer: inactive: 3.49%

Question: For `CCC1CN(CCNC(=O)c2cc(C)nn2CC)Cc2cc(OC)ccc2O1` (stereo not given), which Potency is on record?
Answer: inconclusive [inhibitor, single point]

Question: For `COc1ccc(NC(=O)CC(C)c2ccccc2)c([N+](=O)[O-])c1` (stereo not given), which Potency is on record?
Answer: inconclusive [inhibitor, partial curve]

Question: For `COc1ccc2c(c1)NC(c1cc(Cl)cc(Cl)c1O)c1cccn1-2` (stereo not given), which Potency is on record?
Answer: inconclusive [inhibitor, single point]

Question: Which “activity change, negative = growth inhibition” value does the source give for `Cc1ccc(C(=O)OCC(=O)Nc2ccccc2)cc1S(=O)(=O)N1CCCCC1` here?
Answer: inactive: -7.69%

Question: Which Potency does the source give for `Cn1cccc1C(C(=O)NC1CCCCC1)N(C(=O)Cc1cccs1)C1CC1` (stereo not given) here?
Answer: inconclusive [inhibitor, partial curve]

Question: For `COc1ccc(C2NN=C(c3ccc(C)cc3)S2)cc1OC` (stereo not given), which “activity change, negative = growth inhibition” value is on record?
Answer: inactive: -28.1%

Question: With `Cc1ccn2c(=O)c(C(=O)NCCc3ccc(S(N)(=O)=O)cc3)c(O)nc2c1` as the compound, how does the “activity change, negative = growth inhibition” value read?
Answer: inactive: -12.9%

Question: Which “activity change, negative = growth inhibition” value does the source give for `CCN1CCN(c2ccc(S(=O)(=O)N3CCOCC3)cc2NC(=O)c2ccc(C(F)(F)F)cc2)CC1` here?
Answer: inactive: -13.9%

Question: Which Potency does the source give for `O=C(N/N=C1\CCCc2c1[nH]c1ccc(Cl)cc21)c1ccncc1` here?
Answer: active: 10.3 µM

Question: With `Cc1ccc(C2=CN(Cc3ccccc3)CCC2=O)cc1` as the compound, how does the Potency read?
Answer: inconclusive [inhibitor, single point]

Question: With `COc1ccc(S(=O)(=O)NC2(C(F)(F)F)NC(=O)N(CCc3ccc(OC)c(OC)c3)C2=O)cc1` (stereo not given) as the compound, how does the Potency read?
Answer: inconclusive [inhibitor, partial curve]

Question: Which Potency does the source give for `C[C@@]12C(=O)N(c3cccc(F)c3)C(=O)N1[C@@H]1c3ccccc3OC[C@@H]1[C@H]2c1ccccc1` here?
Answer: active: 14.6 µM

Question: Which Potency does the source give for `Cc1ccc(N=Nc2c(N)nn3c(N)c(C#N)c(C)nc23)cc1` here?
Answer: inconclusive [inhibitor, partial curve]

Question: For `COc1cccc(C(N)=O)c1OC(=O)Cc1ccccc1F`, which “activity change, negative = growth inhibition” value is on record?
Answer: inactive: -26.7%

Question: Which Potency does the source give for `c1ccc(CN(CCN2CCOCC2)Cc2ccccc2)cc1` here?
Answer: inconclusive [inhibitor, single point]

Question: Which “activity change, negative = growth inhibition” value does the source give for `CS(=O)(=O)NCCc1csc2nc(-c3ccccc3)nn12` here?
Answer: inactive: 0.545%

Question: With `COc1ccccc1NC(=O)CSc1nccn1Cc1ccc(F)cc1` as the compound, how does the Potency read?
Answer: inconclusive [inhibitor, single point]

Question: Which “activity change, negative = growth inhibition” value does the source give for `Cc1[nH]c2ccc(C(=O)OCCN(C)C)cc2c1C` here?
Answer: inactive: -21.8%

Question: Which Potency does the source give for `C=C(C)C(=O)Nc1ccc(NC(C)C)cc1` here?
Answer: inconclusive [inhibitor, single point]

Question: For `O=c1oc(-c2ccco2)nc2c1cnn2-c1ccccc1`, which Potency is on record?
Answer: inconclusive [inhibitor, single point]

Question: With `COc1ccc(N2C(=O)CSC23C(=O)N(CC(=O)NCc2ccccc2)c2ccccc23)cc1` (stereo not given) as the compound, how does the Potency read?
Answer: inconclusive [inhibitor, partial curve, poor fit]

Question: With `Cc1ccc(NCc2ccccc2-c2nnc(-c3ccccc3Cl)o2)cc1Cl` as the compound, how does the “activity change, negative = growth inhibition” value read?
Answer: inactive: -15.9%

Question: Which Potency does the source give for `CCCN1C(=O)/C(=C/c2ccc(N3CCOCC3)cc2)NC1=S` here?
Answer: active: 14.6 µM

Question: For `NCCOc1ccc(C2CCCCC2)cc1`, which Potency is on record?
Answer: inconclusive [inhibitor, single point]

Question: Which Potency does the source give for `CCOC(=O)C1=CCN(S(=O)(=O)c2ccc(C)cc2)C1c1ccc(CC)cc1` (stereo not given) here?
Answer: active: 18.4 µM

Question: For `Cc1cc(=O)c(C(=O)Nc2ccc(N3CCOCC3)cc2N2CCOCC2)nn1-c1ccccc1Cl`, which Potency is on record?
Answer: inconclusive [inhibitor, partial curve]

Question: With `COc1ccc(OC)c(NC(=O)c2c(NCc3ccc(C)o3)sc3c2CCCCC3)c1` as the compound, how does the Potency read?
Answer: active: 7.31 µM

Question: For `Cc1cc(Nc2ccccc2Cl)n2nc(-c3ccco3)nc2n1`, which Potency is on record?
Answer: active: 25.9 µM

Question: Which Potency does the source give for `Clc1ccc(C2Nc3cccc4cccc(c34)N2)c(Cl)c1` here?
Answer: inconclusive [inhibitor, single point]

Question: With `CCN(CC)C(=O)CSc1nc2c(sc(=S)n2-c2ccccc2)c(=O)n1-c1ccc(OC)cc1OC` as the compound, how does the Potency read?
Answer: inconclusive [inhibitor, single point]

Question: Which Potency does the source give for `COc1ccc(CCN2C(=O)N(c3ccc(OC)cc3)C(=O)C2CC(=O)Nc2ccc(OC)cc2)cc1` (stereo not given) here?
Answer: inconclusive [inhibitor, single point]

Question: For `C/C(=N\NC(=S)NC(C)C)c1ccccc1`, which Potency is on record?
Answer: inconclusive [inhibitor, single point]

Question: Which Potency does the source give for `COc1cc(C2C(C(=O)OC(C)C)=C(C)N=C3SCCC(=O)N32)ccc1OCc1ccccc1` (stereo not given) here?
Answer: active: 29.1 µM

Question: For `O=C(NCc1cc(C(F)(F)F)cc(C(F)(F)F)c1)C1CC(c2ccccc2C(F)(F)F)=NO1` (stereo not given), which “activity change, negative = growth inhibition” value is on record?
Answer: inactive: -1.03%

Question: With `O=C(/C=C/c1ccccc1Cl)N(Cc1cccs1)C1CCS(=O)(=O)C1` (stereo not given) as the compound, how does the Potency read?
Answer: inconclusive [inhibitor, single point]

Question: For `CCOc1ccc(NC(=O)COc2ccc(C(=O)N3CCC(C(N)=O)CC3)cc2OC)cc1`, which Potency is on record?
Answer: inconclusive [inhibitor, partial curve]

Question: For `CCN(CC)Cc1nc2c(c(=O)[nH]1)C1(CCCCC1)Cc1ccccc1-2`, which Potency is on record?
Answer: active: 18.4 µM

Question: Which Potency does the source give for `CC(=O)NCCC(=O)Nc1nc2ccc(Oc3ccccc3)cc2s1` here?
Answer: inconclusive [inhibitor, single point]

Question: Which Potency does the source give for `Cc1nn(CCCC(=O)Nc2sc3c(c2C#N)CCC3)c(C)c1[N+](=O)[O-]` here?
Answer: inconclusive [inhibitor, partial curve]

Question: With `Cc1cc(C)cc(C(=O)Oc2coc(CSc3nnc(NC(=O)C4CC4)s3)cc2=O)c1` as the compound, how does the Potency read?
Answer: inconclusive [inhibitor, full curve, poor fit]

Question: With `Cc1cccc(OCCn2c(-c3ccco3)nc3ccccc32)c1` as the compound, how does the Potency read?
Answer: inconclusive [inhibitor, single point]

Question: With `C#CCNC(=O)C1=C[C@@H](C)C[C@@H](OCc2ccc(CO)cc2)O1` as the compound, how does the “activity change, negative = growth inhibition” value read?
Answer: inactive: -2.89%

Question: For `CC1CCN(C(=O)c2ccc(S(=O)(=O)Cc3cc(F)ccc3F)c([N+](=O)[O-])c2)CC1`, which Potency is on record?
Answer: active: 16.4 µM

Question: Which Potency does the source give for `COc1ccccc1C(c1nnnn1Cc1ccccc1)N1CCN(C2CCCC2)CC1` (stereo not given) here?
Answer: inconclusive [inhibitor, single point]

Question: Which activity change, negative = growth inhibition does the source give for `O=C(COCc1nc2ccccc2c(=O)[nH]1)NCC1CCCCC1` here?
Answer: inconclusive: -30.3% [inhibitor]

Question: Which Potency does the source give for `COc1ccccc1-c1ccc([C@@H]2C[C@H]3[C@H](CON3C)CN2C(=O)c2ccc(-c3ccccc3)cc2)cc1` here?
Answer: inconclusive [inhibitor, single point]
